Source: the BET-seq Pho4 binding data (Le et al. 2018)
Some of the results follow. These are noisy estimates, calculated here from bound and input reads.

Target: T1, Pho4 (S. cerevisiae) (UniProt P07270)
T1 sequence: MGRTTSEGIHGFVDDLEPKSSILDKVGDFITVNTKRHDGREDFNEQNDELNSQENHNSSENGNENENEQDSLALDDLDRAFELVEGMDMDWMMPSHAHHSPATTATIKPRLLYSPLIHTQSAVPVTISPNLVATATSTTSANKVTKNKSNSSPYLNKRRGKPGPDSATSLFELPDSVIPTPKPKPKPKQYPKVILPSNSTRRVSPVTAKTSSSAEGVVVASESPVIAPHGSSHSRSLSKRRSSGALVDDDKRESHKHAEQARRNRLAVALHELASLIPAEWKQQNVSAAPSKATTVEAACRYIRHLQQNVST
Assay: relative binding free energy (BET-seq); higher = weaker binding
Conditions: reference: library average

Q: For AATTGCACGTGGGATG, which “relative binding free energy” value is on record?
A: -0.01 kcal/mol

Q: For GGTTGCACGTGAGTGA, which “relative binding free energy” value is on record?
A: 0.22 kcal/mol

Q: Which “relative binding free energy” value does the source give for GTGCGCACGTGGTAGT here?
A: -0.13 kcal/mol

Q: For TTGCGCACGTGCGGTG, which “relative binding free energy” value is on record?
A: -0.19 kcal/mol

Q: With TTAGTCACGTGGAGTG as the sequence, how does the “relative binding free energy” value read?
A: 0.03 kcal/mol

Q: How did the “relative binding free energy” value turn out when GTGGGCACGTGAGGAC was run?
A: 0.1 kcal/mol

Q: ATGCTCACGTGGTGGA was tested. Which “relative binding free energy” value did it give?
A: 0.31 kcal/mol

Q: With ATTTTCACGTGGATCA as the sequence, how does the “relative binding free energy” value read?
A: 0.26 kcal/mol

Q: CTTGTCACGTGTAATA was tested. Which “relative binding free energy” value did it give?
A: 0.15 kcal/mol

Q: For CCGGGCACGTGGTGTA, which “relative binding free energy” value is on record?
A: -0.21 kcal/mol

Q: CGGTTCACGTGGGGAC was tested. Which “relative binding free energy” value did it give?
A: 0.2 kcal/mol

Q: With GTCGACACGTGTGGTA as the sequence, how does the “relative binding free energy” value read?
A: 0.13 kcal/mol

Q: How did the “relative binding free energy” value turn out when TATCGCACGTGGAGGG was run?
A: -0.09 kcal/mol

Q: With TTTCGCACGTGATGCT as the sequence, how does the “relative binding free energy” value read?
A: 0.15 kcal/mol

Q: GTGTACACGTGGAGAT was tested. Which “relative binding free energy” value did it give?
A: 0.08 kcal/mol

Q: With GATGTCACGTGCGGTA as the sequence, how does the “relative binding free energy” value read?
A: 0.08 kcal/mol

Q: How did the “relative binding free energy” value turn out when TTTTGCACGTGAAGGG was run?
A: 0.31 kcal/mol

Q: For GGTAGCACGTGTATGG, which “relative binding free energy” value is on record?
A: 0.07 kcal/mol

Q: With GTTTTCACGTGTGTGG as the sequence, how does the “relative binding free energy” value read?
A: 0.42 kcal/mol

Q: With AAATTCACGTGGGGCG as the sequence, how does the “relative binding free energy” value read?
A: 0.09 kcal/mol

Q: With ATATTCACGTGATTTT as the sequence, how does the “relative binding free energy” value read?
A: 0.2 kcal/mol

Q: Which “relative binding free energy” value does the source give for GGCTTCACGTGGGGGT here?
A: 0.22 kcal/mol

Q: How did the “relative binding free energy” value turn out when TTATTCACGTGGTCCT was run?
A: 0.22 kcal/mol

Q: AGGGTCACGTGAGATC was tested. Which “relative binding free energy” value did it give?
A: 0.49 kcal/mol

Q: For AGTGTCACGTGGCATC, which “relative binding free energy” value is on record?
A: 0.12 kcal/mol

Q: Which “relative binding free energy” value does the source give for ATTCTCACGTGCGGTT here?
A: 0.26 kcal/mol

Q: How did the “relative binding free energy” value turn out when GATTACACGTGGCGGG was run?
A: -0.04 kcal/mol

Q: Which “relative binding free energy” value does the source give for TGGGTCACGTGTCGAC here?
A: 0.31 kcal/mol

Q: How did the “relative binding free energy” value turn out when AATATCACGTGGAAGT was run?
A: 0.11 kcal/mol

Q: AGAGTCACGTGTGTTG was tested. Which “relative binding free energy” value did it give?
A: 0.09 kcal/mol

Q: How did the “relative binding free energy” value turn out when GGATACACGTGTGGTG was run?
A: 0.03 kcal/mol

Q: For AGGAGCACGTGTAGAT, which “relative binding free energy” value is on record?
A: 0.21 kcal/mol

Q: For AGGTACACGTGTTGTT, which “relative binding free energy” value is on record?
A: 0.21 kcal/mol

Q: TCAAGCACGTGTGTGT was tested. Which “relative binding free energy” value did it give?
A: 0.01 kcal/mol

Q: GGGGTCACGTGTAGTT was tested. Which “relative binding free energy” value did it give?
A: 0.24 kcal/mol

Q: With TACTTCACGTGGGTTT as the sequence, how does the “relative binding free energy” value read?
A: 0.19 kcal/mol

Q: Which “relative binding free energy” value does the source give for GTTGACACGTGGGTGC here?
A: -0.25 kcal/mol

Q: Which “relative binding free energy” value does the source give for GGAAGCACGTGGTGGC here?
A: -0.15 kcal/mol

Q: With AGGGTCACGTGGCAAG as the sequence, how does the “relative binding free energy” value read?
A: 0.08 kcal/mol

Q: Which “relative binding free energy” value does the source give for TTATACACGTGAGAGT here?
A: 0.24 kcal/mol

Q: With GGAGGCACGTGGACAG as the sequence, how does the “relative binding free energy” value read?
A: -0.06 kcal/mol

Q: For AGTCGCACGTGTTTTT, which “relative binding free energy” value is on record?
A: 0.03 kcal/mol

Q: How did the “relative binding free energy” value turn out when AAGTCCACGTGGTGGT was run?
A: -0.03 kcal/mol

Q: TTAATCACGTGTAGAG was tested. Which “relative binding free energy” value did it give?
A: 0.11 kcal/mol

Q: TTGGGCACGTGGCCGA was tested. Which “relative binding free energy” value did it give?
A: -0.15 kcal/mol

Q: With TTTGCCACGTGGTTAT as the sequence, how does the “relative binding free energy” value read?
A: -0.04 kcal/mol

Q: With GGACGCACGTGGCGGG as the sequence, how does the “relative binding free energy” value read?
A: -0.15 kcal/mol

Q: Which “relative binding free energy” value does the source give for GGAGTCACGTGAGGCT here?
A: 0.37 kcal/mol

Q: How did the “relative binding free energy” value turn out when TTAATCACGTGCATTG was run?
A: 0.16 kcal/mol

Q: Which “relative binding free energy” value does the source give for ATATGCACGTGGTTTC here?
A: -0.1 kcal/mol

Q: Which “relative binding free energy” value does the source give for GATTACACGTGGTGTC here?
A: 0.1 kcal/mol

Q: Which “relative binding free energy” value does the source give for GCGGGCACGTGGTGGC here?
A: -0.17 kcal/mol

Q: How did the “relative binding free energy” value turn out when TGAGCCACGTGGCGGG was run?
A: -0.27 kcal/mol

Q: With GTGCTCACGTGGGGAG as the sequence, how does the “relative binding free energy” value read?
A: 0.1 kcal/mol

Q: How did the “relative binding free energy” value turn out when TTTGACACGTGTCTGT was run?
A: 0.04 kcal/mol

Q: How did the “relative binding free energy” value turn out when TTCGACACGTGGGTGC was run?
A: -0.06 kcal/mol

Q: For AAGTGCACGTGCTGTT, which “relative binding free energy” value is on record?
A: -0.14 kcal/mol

Q: AAGTTCACGTGGGAGT was tested. Which “relative binding free energy” value did it give?
A: 0.27 kcal/mol

Q: GGTTTCACGTGAAGCT was tested. Which “relative binding free energy” value did it give?
A: 0.4 kcal/mol

Q: For GGGGTCACGTGGCAAG, which “relative binding free energy” value is on record?
A: -0.04 kcal/mol

Q: With CGGGGCACGTGAGTGA as the sequence, how does the “relative binding free energy” value read?
A: 0.07 kcal/mol

Q: How did the “relative binding free energy” value turn out when TAGGGCACGTGTACTT was run?
A: -0.06 kcal/mol

Q: How did the “relative binding free energy” value turn out when TAGTTCACGTGTGAAA was run?
A: 0.15 kcal/mol

Q: How did the “relative binding free energy” value turn out when TGAGACACGTGATGTT was run?
A: 0.11 kcal/mol

Q: For CATGGCACGTGTCTGT, which “relative binding free energy” value is on record?
A: 0 kcal/mol

Q: Which “relative binding free energy” value does the source give for GAAGGCACGTGGGGGC here?
A: -0.07 kcal/mol

Q: With GATTTCACGTGAAGGC as the sequence, how does the “relative binding free energy” value read?
A: 0.55 kcal/mol

Q: CTTTGCACGTGATATT was tested. Which “relative binding free energy” value did it give?
A: 0.01 kcal/mol

Q: TGAAGCACGTGGGATT was tested. Which “relative binding free energy” value did it give?
A: -0.11 kcal/mol

Q: How did the “relative binding free energy” value turn out when TTGGGCACGTGTGTCC was run?
A: 0 kcal/mol

Q: For TGTTCCACGTGGGCGT, which “relative binding free energy” value is on record?
A: -0.14 kcal/mol

Q: Which “relative binding free energy” value does the source give for TATGTCACGTGATTGC here?
A: 0.15 kcal/mol

Q: With ATAGTCACGTGAGGAT as the sequence, how does the “relative binding free energy” value read?
A: 0.31 kcal/mol

Q: CGGTCCACGTGGTGGG was tested. Which “relative binding free energy” value did it give?
A: -0.14 kcal/mol

Q: TGATTCACGTGGTTCG was tested. Which “relative binding free energy” value did it give?
A: 0.26 kcal/mol

Q: Which “relative binding free energy” value does the source give for TTTCGCACGTGATGGC here?
A: 0.13 kcal/mol

Q: How did the “relative binding free energy” value turn out when GAGATCACGTGGTGGG was run?
A: 0.14 kcal/mol

Q: How did the “relative binding free energy” value turn out when TGTTACACGTGACTGT was run?
A: 0.23 kcal/mol

Q: How did the “relative binding free energy” value turn out when TTATTCACGTGAAGCG was run?
A: 0.24 kcal/mol

Q: Which “relative binding free energy” value does the source give for ATTGTCACGTGGACTT here?
A: -0.07 kcal/mol

Q: Which “relative binding free energy” value does the source give for GATGACACGTGTAGGT here?
A: 0.17 kcal/mol

Q: For AGTATCACGTGGGAAT, which “relative binding free energy” value is on record?
A: 0.14 kcal/mol

Q: How did the “relative binding free energy” value turn out when TGTGGCACGTGTTACG was run?
A: -0.16 kcal/mol

Q: For GTTTGCACGTGCGTGT, which “relative binding free energy” value is on record?
A: 0.05 kcal/mol

Q: For TCTGTCACGTGCGGTG, which “relative binding free energy” value is on record?
A: -0.14 kcal/mol

Q: With GAGCTCACGTGGAATG as the sequence, how does the “relative binding free energy” value read?
A: 0.53 kcal/mol

Q: For CGATGCACGTGTGGTT, which “relative binding free energy” value is on record?
A: 0.04 kcal/mol

Q: With GATGGCACGTGCGTTG as the sequence, how does the “relative binding free energy” value read?
A: -0.07 kcal/mol

Q: How did the “relative binding free energy” value turn out when GGATTCACGTGCTGTT was run?
A: 0.39 kcal/mol

Q: With AGTTACACGTGTGGCT as the sequence, how does the “relative binding free energy” value read?
A: 0.27 kcal/mol

Q: How did the “relative binding free energy” value turn out when GGCGTCACGTGGGTTG was run?
A: 0.05 kcal/mol

Q: TGATTCACGTGGGTAT was tested. Which “relative binding free energy” value did it give?
A: 0.15 kcal/mol

Q: For AATGGCACGTGAGCGT, which “relative binding free energy” value is on record?
A: 0 kcal/mol

Q: How did the “relative binding free energy” value turn out when CGGTGCACGTGGAAAA was run?
A: 0.23 kcal/mol

Q: Which “relative binding free energy” value does the source give for CTGTGCACGTGCCGGG here?
A: -0.15 kcal/mol

Q: For GTGGACACGTGAATAG, which “relative binding free energy” value is on record?
A: 0.25 kcal/mol

Q: GTTTTCACGTGTCAGG was tested. Which “relative binding free energy” value did it give?
A: 0.29 kcal/mol

Q: With GGGGGCACGTGCGACT as the sequence, how does the “relative binding free energy” value read?
A: -0.11 kcal/mol

Q: GTTGACACGTGTGGAA was tested. Which “relative binding free energy” value did it give?
A: 0.08 kcal/mol

Q: Which “relative binding free energy” value does the source give for ACGTACACGTGGAGGG here?
A: -0.02 kcal/mol

Q: How did the “relative binding free energy” value turn out when AGAATCACGTGCGGAT was run?
A: 0.43 kcal/mol

Q: How did the “relative binding free energy” value turn out when TTATGCACGTGTTACA was run?
A: 0.04 kcal/mol

Q: How did the “relative binding free energy” value turn out when TAGCACACGTGTTGTT was run?
A: -0.03 kcal/mol

Q: How did the “relative binding free energy” value turn out when GGAGACACGTGGAGGG was run?
A: -0.01 kcal/mol

Q: For GTACTCACGTGTTGAT, which “relative binding free energy” value is on record?
A: 0.25 kcal/mol

Q: For TCCTGCACGTGGGTTA, which “relative binding free energy” value is on record?
A: -0.09 kcal/mol

Q: For AAGTTCACGTGTTGGG, which “relative binding free energy” value is on record?
A: 0.31 kcal/mol

Q: For GTGTTCACGTGCAGGA, which “relative binding free energy” value is on record?
A: 0.19 kcal/mol

Q: GGTGCCACGTGGTTGA was tested. Which “relative binding free energy” value did it give?
A: -0.09 kcal/mol

Q: How did the “relative binding free energy” value turn out when TGGTCCACGTGGGCTT was run?
A: -0.05 kcal/mol

Q: Which “relative binding free energy” value does the source give for CTAGGCACGTGGTGTC here?
A: -0.21 kcal/mol

Q: Which “relative binding free energy” value does the source give for TTGGACACGTGGTTCG here?
A: 0.03 kcal/mol

Q: How did the “relative binding free energy” value turn out when TGAGACACGTGGGAGT was run?
A: -0.09 kcal/mol

Q: With ATAGTCACGTGTGTTC as the sequence, how does the “relative binding free energy” value read?
A: -0.04 kcal/mol

Q: For TTATGCACGTGTTAGC, which “relative binding free energy” value is on record?
A: 0.06 kcal/mol
